Experimental data published in PubChem BioAssay AID360 (National Center for Advancing Translational Sciences (NCATS), 2006).
Out of some 48,000 compounds screened, about 550 (1.1%) were called active. Roughly 4% stayed inconclusive and do not appear here. No stated cut-off is given here; in the data, active means potency below about 15 µM; inconclusive means mostly about 16 µM to 33 µM; inactive means weaker than that. This is one part of the list.

The compounds below were run against Lysosomal acid glucosylceramidase (Homo sapiens) (UniProt P04062) (assay: Glucocerebrosidase). Settings: purified enzyme, resorufin glucoside fluorescence (screen aimed at inhibitors), 20 min.
Chain of UniProt P04062 (P04062 whole entry, looked up): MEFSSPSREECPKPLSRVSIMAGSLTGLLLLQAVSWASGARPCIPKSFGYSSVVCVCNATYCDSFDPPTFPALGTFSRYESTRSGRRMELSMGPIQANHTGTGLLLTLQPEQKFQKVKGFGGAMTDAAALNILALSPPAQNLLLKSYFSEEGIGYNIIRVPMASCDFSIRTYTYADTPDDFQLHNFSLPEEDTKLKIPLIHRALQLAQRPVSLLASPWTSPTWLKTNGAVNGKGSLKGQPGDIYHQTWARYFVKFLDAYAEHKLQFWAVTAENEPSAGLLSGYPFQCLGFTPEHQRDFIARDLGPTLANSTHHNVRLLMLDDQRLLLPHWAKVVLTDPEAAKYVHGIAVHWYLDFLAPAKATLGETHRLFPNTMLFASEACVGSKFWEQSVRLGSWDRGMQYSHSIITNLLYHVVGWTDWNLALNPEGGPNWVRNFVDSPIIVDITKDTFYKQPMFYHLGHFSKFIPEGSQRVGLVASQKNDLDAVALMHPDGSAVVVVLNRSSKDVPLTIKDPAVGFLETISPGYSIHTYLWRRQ
Outline: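 Normal human glucocerebrosidase (0.2 nM final) was assayed with resorufin β-D-glucopyranoside (30 uM final) in 50mM citric acid/KH2PO4, 10mM sodium taurocholate, 0.01% tween-20, pH 5.9. Compounds were titrated; fluorescence (Ex 548, Em 600) read after 20 min at RT.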
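Further: the screen sought inhibitors.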
Potency means the concentration at half of the fitted maximal effect.

Potency, inactive:
O=C(COc1ccc(Cl)cc1Cl)NC(=O)N1CCOCC1 > 76.9 µM
O=c1cc(CNC2CCCCC2)c2ccccc2[nH]1 > 76.9 µM
CC(C)CNC(=O)CN(C1CCCCC1)S(C)(=O)=O > 76.9 µM
O=C(CNC(=O)c1ccco1)OCc1ccc(C(=O)Oc2ccccc2)cc1 > 76.9 µM
COc1ccc2oc(C)c(C(=O)Cn3ccnc3)c2c1
CCn1c(=O)cc(SCC(=O)Nc2cccnc2)c2ccccc21 > 76.9 µM
CCOC(=O)c1nc(S(C)(=O)=O)ncc1Cl > 76.9 µM
CCC1(C)Cc2c(sc3nc(SCC(=O)O)[nH]c(=O)c23)CO1 (stereo not given) > 76.9 µM
CN(C(=O)c1cc2n(n1)C(C(F)(F)F)CC(c1ccco1)N2)c1ccc(OC(F)(F)F)cc1 (stereo not given) > 76.9 µM
Cc1cc(C)c(C#N)c(SCC(=O)Nc2nnc(-c3ccccc3)s2)n1 > 76.9 µM
COc1cccc(OC)c1C(=O)Nc1ccc(N2CCN(S(C)(=O)=O)CC2)cc1 > 76.9 µM
COc1ccccc1OCc1nnc(SCC(=O)Nc2ccc(C)cc2)n1C > 76.9 µM
CCOC(=O)c1c(NC(=O)CSc2nc3c(c(=O)n(C)c(=O)n3C)n2C(C)C)sc(C)c1C > 76.9 µM
Cc1nn(Cc2ccccc2)c(Cl)c1C(=O)OCc1nnc(-c2ccccc2)o1 > 76.9 µM
Cc1noc(/C=C/N(C)C)c1S(=O)(=O)N1CCCC(C(=O)NC(C)c2ccccc2)C1 (stereo not given) > 76.9 µM
CCOC(=O)Cc1csc(NC(=O)c2cccnc2)n1 > 76.9 µM
Cc1nnc(SCC(=O)N2CCN(S(=O)(=O)c3ccccc3)CC2)n1Cc1ccccc1 > 76.9 µM
COc1cc(-c2csc(C)n2)ccc1O > 76.9 µM
COc1cccc(CC(NC(C)=O)C(=O)NC2CCN(c3nc(C)cc(C)c3C#N)CC2)c1OC (stereo not given) > 76.9 µM
Cc1ccccc1C(C(=O)NCc1ccco1)N(CC1CCCO1)C(=O)Cn1nnc2ccccc21 (stereo not given) > 76.9 µM
Cc1nc2ccccc2c2c1C(=O)N(C)C2=O > 76.9 µM
O=C(Nc1cccc2cccnc12)c1cccnc1 > 76.9 µM
Cc1cc(NC(=O)CSc2ccc(Cl)cc2)no1 > 76.9 µM
O=C(OCn1nnc2ccccc2c1=O)c1ccc(Br)o1 > 76.9 µM
CCOc1ccc(Oc2nc(NCC(C)C)nc(N(C)C)n2)nn1 > 76.9 µM
CCCC(=O)Nc1nnc(COC)s1 > 76.9 µM
O=C(/C=C1\NC2(CCCC2)Cc2ccccc21)N1CCOCC1 > 76.9 µM
CCCCCCNC(=O)CCNC(=O)c1cc(OC)c(OC)c(OC)c1 > 76.9 µM
C=CCN1C(=O)CN=C1Nc1cc(C)cc(C)c1 > 76.9 µM
CC(C)n1c(=NC(=O)c2ccco2)c(C#N)cc2c(=O)n3ccccc3cc21 > 76.9 µM
CCC(=O)NC(C)C(c1cccs1)N1CCN(c2ccccc2)CC1 (stereo not given) > 76.9 µM
O=C1N(S(=O)(=O)c2ccccc2F)C(=O)C2(CCCC2)N1S(=O)(=O)c1ccccc1F > 76.9 µM
CCOc1ccc(OCC(=O)c2c(O)c3ccccc3oc2=O)cc1 > 76.9 µM
Cc1nnc(SC(C)C(=O)Nc2ccc(S(=O)(=O)N3CCCCC3)cc2)s1 (stereo not given) > 76.9 µM
CC(=O)N1CCc2cc(S(=O)(=O)NC(CC(C)C)C(=O)N3CCc4ccccc4C3)ccc21 (stereo not given) > 76.9 µM
COc1ccc(OC)c(-c2cc(C(=O)Nc3cc(C)on3)no2)c1 > 76.9 µM
CCOc1ncccc1C(=O)OCC(=O)c1c(N)n(C)c(=O)n(C)c1=O > 76.9 µM
CC(C)(C)C(=O)C(CO)(Oc1ccc(Cl)cc1)n1cncn1 (stereo not given) > 76.9 µM
CCC(C)(C)n1nnnc1C(c1ccc(OC)c(OC)c1)N1CCN(c2ccc(OC)cc2)CC1 (stereo not given) > 76.9 µM
N#Cc1nc(-c2ccco2)oc1NCc1ccco1 > 76.9 µM
COCCOC(=O)c1c(C)n(C)c2ccc(OC(=O)c3cccs3)cc12 > 76.9 µM
Cc1ccc(S(=O)(=O)NCCOCCNS(=O)(=O)c2ccc(C)cc2)cc1 > 76.9 µM
COc1cccc(NC(=O)CC2(CC(=O)O)CCCC2)c1 > 76.9 µM
CCN(CC)CCCN1C(=O)C(=O)/C(=C(/O)c2c(C)nc3ccccn23)C1c1ccc(C)o1 (stereo not given) > 76.9 µM
CCC(c1nnc(SCCNCCO)n1CCN1CCOCC1)N(C)C (stereo not given) > 76.9 µM
CC(C)OC(=O)CSc1nnc(-c2ccco2)n1N > 76.9 µM
CCOC(=O)CN1C(=O)C(O)(CC(=O)c2cccc(OC)c2)c2ccccc21 (stereo not given) > 76.9 µM
O=C(Nc1ccc(F)cc1)c1cccnc1N1CCOCC1 > 76.9 µM
Cc1ccc(S(=O)(=O)N2CCOCC2)cc1C(=O)N1C(=O)c2cccc(N)c2C1=O > 76.9 µM
CCOc1cc(C(=O)N2CCOCC2)ccc1OCc1ccccc1 > 76.9 µM
CCn1c(CNc2ccc(OC)cc2)nnc1SCC(=O)N1CCCc2ccccc21 > 76.9 µM
CC(=O)c1c(C)n(C)c2ccc(OC(=O)c3ccco3)cc12 > 76.9 µM
O=C(c1cnn2c(C(F)(F)F)cc(-c3ccc4c(c3)OCO4)nc12)N1CCCC1 > 76.9 µM
COc1ccc(OC)c(NC(=O)CSc2nnnn2-c2ccccc2F)c1 > 76.9 µM
N#Cc1sc2nc(-c3ccccc3)cc(-c3ccco3)c2c1N > 76.9 µM
CCn1c(SCC(=O)NCc2ccco2)nc2c(c1=O)SC(C)C2 (stereo not given) > 76.9 µM
Cn1c(C(=O)N2CCN(C(=O)c3ccco3)CC2)cc2c(=O)n3ccccc3nc21 > 76.9 µM
CC1CCCN(C(=O)C2CCN(CCCc3ccccc3)CC2)C1 (stereo not given) > 76.9 µM
CCn1c(SCC(=O)OCc2ccccc2)nc2c1c(=O)n(C)c(=O)n2C > 76.9 µM
COC(=O)c1ccc(NC(=O)N2CCOCC2)cc1 > 76.9 µM
Cc1nc(CCNC(=O)c2cccs2)cs1 > 76.9 µM
Cn1c(SCC(=O)N2CCOCC2)nc2sc3c(c2c1=O)CCCC3 > 76.9 µM
CCCn1c(=NC(=O)c2ccncc2)c(C(=O)OCC)cc2c(=O)n3cccc(C)c3nc21 > 76.9 µM
CN(C)C(=O)N1CCC(C(=O)NCC2CCCO2)CC1 (stereo not given) > 76.9 µM
Cc1cc(=O)oc2cc(NC(=O)CCCC(=O)O)ccc12 > 76.9 µM
CC1(C)NC(=O)N(CCOCCSc2ccccc2)C1=O > 76.9 µM
COc1ccc(OC)c(NC(=O)CCN2CCC(C)CC2)c1 > 76.9 µM
O=C(CCS(=O)(=O)c1cccs1)N1CCCC1 > 76.9 µM
N#Cc1c(NC(=O)CSc2ncc(-c3ccccc3)n2CC2CCCO2)sc2c1CCCC2 (stereo not given) > 76.9 µM
Cc1cc2c(=O)n(CC(=O)N3CCN(c4ccccc4)CC3)cnc2s1 > 76.9 µM
CC(C)[C@@H]1NC(=O)N(c2ccc(Oc3ccccc3)cc2)C1=O > 76.9 µM
COc1ccc(NC(=O)C2CC(=O)OC2(C)C)cc1 (stereo not given) > 76.9 µM
CCc1ccc(NC2=NC(C(=O)NC3CCCCC3)CC(=O)N2)cc1 (stereo not given) > 76.9 µM
O=C(COc1ncnc2ccccc12)N1CCN(S(=O)(=O)c2ccccc2)CC1 > 76.9 µM
CCOC(=O)c1c(C)[nH]c(C(=O)COC(=O)c2cn(CC)c3nc(C)ccc3c2=O)c1C > 76.9 µM
O=C(Cc1cccs1)N1CCN(C(=O)C2CCCO2)CC1 (stereo not given) > 76.9 µM
O=C(NCc1ccco1)c1ccc2c(c1)C(=O)N(Cc1ccccc1)C2=O > 76.9 µM
O=C(Cn1nc(C(F)(F)F)c2c1CCC2)N1CCN(c2ccccc2)CC1 > 76.9 µM
O=C1NCCCC1C(=O)Nc1ccccn1 (stereo not given) > 76.9 µM
Cc1nn(-c2ccccc2)c2sc(C(=O)OCC(=O)N3CCCCC3)cc12 > 76.9 µM
Cc1ncsc1CCSc1n[nH]c(=O)n1-c1ccccc1 > 76.9 µM
CCCOc1ccc2c3c(c(=O)oc2c1)CCCC3 > 76.9 µM
CCOC(=O)CN1C(=O)C(CC)Oc2ccccc21 (stereo not given) > 76.9 µM
O=C(c1ccc2c(=O)n(-c3ccccc3)c(=O)[nH]c2c1)N1CCN(c2ccc(F)cc2)CC1 > 76.9 µM
CC(=O)N1CCCc2cc(S(=O)(=O)N(CC(C)C)CC(C)C)ccc21 > 76.9 µM
Cc1ccc(-n2nnnc2SCC(=O)N2CCc3ccccc3C2)c(C)c1 > 76.9 µM
COC(=O)c1[nH]c2cccc(OC)c2c1NC(=O)CCN1CCN(c2ccccc2OC)CC1 > 76.9 µM
COc1cc(C2=NOC(C(=O)NC3CCCCC3)C2)cc(OC)c1OC (stereo not given) > 76.9 µM
O=C(COc1ccccc1)N1CCN(c2ncnc3c2cnn3-c2ccccc2)CC1 > 76.9 µM
CCCS(=O)(=O)N1CCN(CCCc2ccccc2)CC1 > 76.9 µM
